# Experimental data as given in the supplement of paper PMC8728848.
# The other results are listed elsewhere or left out.
# B1: Als3-41 (Candida albicans) (protein)
# chain: KTITGVFNSFNSLTWSNAATYNYKGPGTPTWNAVLGWSLDGTSASPGDTFTLNMPCVFKFTTSQTSVDLTAHGVKYATCQFQAGEEFMTFSTLTCTVSNTLTPSIKALGTVTLPLAFNVGGTGSSVDLEDSKCFTAGTNTVTFNDGGKKISINVDFERSNVDPKGYLTDSRVIPSLNKVSTLFVAPQCANGYTSGTMGFANTYGDVQIDCSNIHVGITKGLNDWNYPVSSESFSYTKTCSSNGIFITYKNVPAGYRPFVDAYISATDVNSYTLSYANEYTCAGGYWQRAPFTLRWTGYRNSDAGSNGIVIVATTRTVTDSTTAVTTLPFDPNRDKTKTIEILKPIPTTTITTSYVGVTTSYLTKTAPIGETATVIVD
# Assays:
# Experiment in all cases: glycan array binding signal (z-score within array); higher = stronger binding
# Settings in all cases: glycan notation: IUPAC condensed, linker removed
# Glc(b1-4)Glc = target: Glc(b1-4)Glc
# Outline: (§1)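 The binding signal is a Z-score computed within each array. Data were drawn from 3228 arrays in the Consortium for Functional Glycomics database, restricted to those with a known protein sequence. Scores were averaged over arrays of the same protein sequence at different concentrations or buffers, and over linkers, and negative values can be taken as non-binding.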
# Glc(b1-6)Glc = target: Glc(b1-6)Glc
# Outline: as §1
# GlcA(b1-3)Gal = target: GlcA(b1-3)Gal
# Outline: as §1
# GlcA(b1-3)GlcNAc = target: GlcA(b1-3)GlcNAc
# Outline: as §1
# GlcA(b1-6)Gal = target: GlcA(b1-6)Gal
# Outline: as §1
# [1] = target: GlcA3S(b1-3)Gal(b1-4)GlcNAc(b1-2)Man
# Outline: as §1
# [2] = target: GlcA3S(b1-3)Gal(b1-4)GlcNAc(b1-3)Gal(b1-4)Glc
# Outline: as §1
# [3] = target: GlcNAc(a1-3)Gal(b1-4)GlcNAc
# Outline: as §1
# [4] = target: GlcNAc(a1-4)Gal(b1-3)GlcNAc
# Outline: as §1
# [5] = target: GlcNAc(a1-4)Gal(b1-4)GalNAc
# Outline: as §1
# [6] = target: GlcNAc(a1-4)Gal(b1-4)GlcNAc
# Outline: as §1
# [7] = target: GlcNAc(a1-4)Gal(b1-4)GlcNAc(b1-3)Gal(b1-4)Glc
# Outline: as §1
# [8] = target: GlcNAc(a1-4)Gal(b1-4)GlcNAc(b1-3)Gal(b1-4)GlcNAc
# Outline: as §1
# [9] = target: GlcNAc(a1-4)Gal(b1-4)GlcNAc(b1-3)Gal(b1-4)GlcNAc(b1-3)Gal(b1-4)GlcNAc
# Outline: as §1
# [10] = target: GlcNAc(a1-4)Gal(b1-4)GlcNAc(b1-3)Gal(b1-4)[Fuc(a1-3)]GlcNAc(b1-3)Gal(b1-4)[Fuc(a1-3)]GlcNAc
# Outline: as §1
# [11] = target: GlcNAc(a1-6)Gal(b1-4)GlcNAc
# Outline: as §1
# [12] = target: GlcNAc(b1-2)Gal(b1-3)GalNAc
# Outline: as §1
# [13] = target: GlcNAc(b1-2)Man(a1-3)[GlcNAc(b1-2)Man(a1-6)]Man(b1-4)GlcNAc(b1-4)GlcNAc
# Outline: as §1
# [14] = target: GlcNAc(b1-2)Man(a1-3)[GlcNAc(b1-2)Man(a1-6)]Man(b1-4)GlcNAc(b1-4)[Fuc(a1-6)]GlcNAc
# Outline: as §1
# [15] = target: GlcNAc(b1-2)Man(a1-3)[GlcNAc(b1-4)][GlcNAc(b1-2)Man(a1-6)]Man(b1-4)GlcNAc(b1-4)GlcNAc
# Outline: as §1
# [16] = target: GlcNAc(b1-2)Man(a1-3)[GlcNAc(b1-4)][GlcNAc(b1-2)Man(a1-6)]Man(b1-4)GlcNAc(b1-4)[Fuc(a1-6)]GlcNAc
# Outline: as §1
# [17] = target: GlcNAc(b1-2)[GlcNAc(b1-4)]Man(a1-3)[GlcNAc(b1-2)Man(a1-6)]Man(b1-4)GlcNAc(b1-4)GlcNAc
# Outline: as §1
# [18] = target: GlcNAc(b1-2)[GlcNAc(b1-4)]Man(a1-3)[GlcNAc(b1-4)][GlcNAc(b1-2)Man(a1-6)]Man(b1-4)GlcNAc(b1-4)GlcNAc
# Outline: as §1
# [19] = target: GlcNAc(b1-2)[GlcNAc(b1-4)]Man(a1-3)[GlcNAc(b1-4)][GlcNAc(b1-2)[GlcNAc(b1-6)]Man(a1-6)]Man(b1-4)GlcNAc(b1-4)GlcNAc
# Outline: as §1
# [20] = target: GlcNAc(b1-2)[GlcNAc(b1-4)]Man(a1-3)[GlcNAc(b1-4)][GlcNAc(b1-2)[GlcNAc(b1-6)]Man(a1-6)]Man(b1-4)GlcNAc(b1-4)[Fuc(a1-6)]GlcNAc
# Outline: as §1
# [21] = target: GlcNAc(b1-2)[GlcNAc(b1-6)]Man(a1-6)[GlcNAc(b1-2)Man(a1-3)]Man(b1-4)GlcNAc(b1-4)GlcNAc
# Outline: as §1
# [22] = target: GlcNAc(b1-2)[GlcNAc(b1-6)]Man(a1-6)[GlcNAc(b1-2)Man(a1-3)]Man(b1-4)GlcNAc(b1-4)[Fuc(a1-6)]GlcNAc
# Outline: as §1
# [23] = target: GlcNAc(b1-2)[GlcNAc(b1-6)]Man(a1-6)[GlcNAc(b1-4)][GlcNAc(b1-2)Man(a1-3)]Man(b1-4)GlcNAc(b1-4)GlcNAc
# Outline: as §1
# GlcNAc(b1-3)Fuc = target: GlcNAc(b1-3)Fuc
# Outline: as §1
# GlcNAc(b1-3)Gal = target: GlcNAc(b1-3)Gal
# Outline: as §1
# [24] = target: GlcNAc(b1-3)Gal(b1-3)GalNAc
# Outline: as §1
# GlcNAc(b1-3)Gal(b1-4)Glc = target: GlcNAc(b1-3)Gal(b1-4)Glc
# Outline: as §1
# [25] = target: GlcNAc(b1-3)Gal(b1-4)GlcNAc
# Outline: as §1
# [26] = target: GlcNAc(b1-3)Gal(b1-4)GlcNAc(b1-2)Man(a1-3)[GlcNAc(b1-3)Gal(b1-4)GlcNAc(b1-2)Man(a1-6)]Man(b1-4)GlcNAc(b1-4)GlcNAc
# Outline: as §1
# [27] = target: GlcNAc(b1-3)Gal(b1-4)GlcNAc(b1-2)Man(a1-3)[GlcNAc(b1-3)Gal(b1-4)GlcNAc(b1-2)Man(a1-6)]Man(b1-4)GlcNAc(b1-4)[Fuc(a1-6)]GlcNAc
# Outline: as §1
# [28] = target: GlcNAc(b1-3)Gal(b1-4)GlcNAc(b1-2)[GlcNAc(b1-3)Gal(b1-4)GlcNAc(b1-6)]Man(a1-6)[GlcNAc(b1-3)Gal(b1-4)GlcNAc(b1-2)Man(a1-3)]Man(b1-4)GlcNAc(b1-4)GlcNAc
# Outline: as §1
# [29] = target: GlcNAc(b1-3)Gal(b1-4)GlcNAc(b1-3)Gal(b1-4)GlcNAc
# Outline: as §1
binder,measurement,setting,value
B1,glycan array binding signal (z-score),Glc(b1-4)Glc,-0.031
same,glycan array binding signal (z-score),Glc(b1-6)Glc,-0.201
same,glycan array binding signal (z-score),GlcA(b1-3)Gal,-0.31
same,glycan array binding signal (z-score),GlcA(b1-3)GlcNAc,-0.131
same,glycan array binding signal (z-score),GlcA(b1-6)Gal,-0.221
same,glycan array binding signal (z-score),[1],-0.342
same,glycan array binding signal (z-score),[2],0.099
same,glycan array binding signal (z-score),[3],-0.146
same,glycan array binding signal (z-score),[4],-0.24
same,glycan array binding signal (z-score),[5],-0.114
same,glycan array binding signal (z-score),[6],-0.237
same,glycan array binding signal (z-score),[7],-0.297
same,glycan array binding signal (z-score),[8],-0.011
same,glycan array binding signal (z-score),[9],-0.329
same,glycan array binding signal (z-score),[10],0.656
same,glycan array binding signal (z-score),[11],0.077
same,glycan array binding signal (z-score),[12],-0.144
same,glycan array binding signal (z-score),[13],-0.278
same,glycan array binding signal (z-score),[14],0.322
same,glycan array binding signal (z-score),[15],-0.286
same,glycan array binding signal (z-score),[16],-0.328
same,glycan array binding signal (z-score),[17],-0.372
same,glycan array binding signal (z-score),[18],-0.136
same,glycan array binding signal (z-score),[19],-0.308
same,glycan array binding signal (z-score),[20],-0.311
same,glycan array binding signal (z-score),[21],-0.27
same,glycan array binding signal (z-score),[22],-0.266
same,glycan array binding signal (z-score),[23],-0.362
same,glycan array binding signal (z-score),GlcNAc(b1-3)Fuc,0.635
same,glycan array binding signal (z-score),GlcNAc(b1-3)Gal,-0.245
same,glycan array binding signal (z-score),[24],-0.224
same,glycan array binding signal (z-score),GlcNAc(b1-3)Gal(b1-4)Glc,-0.199
same,glycan array binding signal (z-score),[25],-0.27
same,glycan array binding signal (z-score),[26],-0.231
same,glycan array binding signal (z-score),[27],0.627
same,glycan array binding signal (z-score),[28],1.97
same,glycan array binding signal (z-score),[29],-0.339
